This list was built around the results that the source calls inconclusive (neither active nor inactive); the mix of calls is not that of the screen. No potency is given beside an inconclusive call; the fits are too rough. The source made the active and inactive calls. Calls follow the shape of the dose curve; as a rule, active = well fitted inhibition curve with a large enough effect; inconclusive = small, poorly fitted or top-dose-only effect; inactive = no such curve, though single readings can be large or run the other way.
Experiment: qHTS Screen of the MIPE 4.0 Collection Against Ewings Sarcoma (TC71) (AID 1259253); also: nearly all actives have a fitted effect of over 40% in size
Conditions: TC71 Ewing sarcoma viability, CellTiter-Glo, 48 h; series mostly up to 45.8 µM
Method in brief: (§1)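 Measured: ATP luminescence (CellTiter-Glo) 10 min after reagent addition, following 48 h drug treatment. Relative luciferase units converted to percent activity, with no-cell wells as full and DMSO wells as zero inhibition.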
Potency is read from the fitted curve at half-maximal effect; tags tell the direction and shape of the fitted curve.

Row | SMILES | Potency
1 | O=C1CCC[C@@H]2[C@H]3CCCN4CCC[C@@H](CN12)[C@@H]34 | inactive
2 | O=C(NCC1CCOCC1)c1cnc(Nc2ccc(Cl)cc2Cl)nc1C(F)(F)F | inconclusive [inhibitor, single point]
3 | COc1ccc2c(c1)CN(C)CC2c1ccc(Cl)c(Cl)c1 (stereo not drawn) | inconclusive [inhibitor, single point]
4 | CCOC(=O)c1cncn1[C@H](C)c1ccccc1 | inactive
5 | CN(C)NC(=O)CCC(=O)O | inconclusive [inhibitor, single point]
6 | CC1(N2CCC(n3c([C@@H]4CCCNC4)nc4ccccc43)CC2)CCCCCCC1 | inconclusive [inhibitor, partial curve, poor fit]
7 | COc1ccc2c(c1OC)CN1CCc3cc4c(cc3C1C2)OCO4 (stereo not drawn) | inconclusive [inhibitor, partial curve]
8 | COc1cc(OC)c(OC)cc1C=O | inconclusive [inhibitor, single point]
9 | O=P1(NCCCl)OCCCN1CCCl (stereo not drawn) | inconclusive [inhibitor, single point]
10 | c1cc2c(cc1[C@H]1OC[C@H]3[C@H]1CO[C@H]3c1ccc3c(c1)OCO3)OCO2 | inconclusive [inhibitor, single point]
11 | CCCC[N+]1(C)[C@H]2CC(OC(=O)[C@H](CO)c3ccccc3)C[C@H]1[C@H]1O[C@H]12 (stereo partly drawn) | inactive
12 | C[C@]12COC(=O)C[C@@H]1CC[C@@H]1[C@H]2CC[C@@]2(C)[C@H]1CC[C@]2(C)O | inconclusive [inhibitor, single point]
13 | NC1CC1c1ccccc1 (stereo not drawn) | inactive
14 | C[C@]12CCC(=O)C=C1CC[C@@H]1[C@H]3CC[C@](C)(O)[C@@]3(C)CC[C@@H]12 | inconclusive [inhibitor, full curve, poor fit]

Experiment: qHTS Screen of the MIPE 4.0 Collection Against Ewings Sarcoma (EW8) (AID 1259255); also: nearly all actives have a fitted effect of over 35% in size
Conditions: EW8 Ewing sarcoma viability, CellTiter-Glo, 48 h; series mostly up to 45.8 µM
Method in brief: as §1

Row | SMILES | Potency
15 | O=C1CCC[C@@H]2[C@H]3CCCN4CCC[C@@H](CN12)[C@@H]34 | inactive
16 | O=C(NCC1CCOCC1)c1cnc(Nc2ccc(Cl)cc2Cl)nc1C(F)(F)F | inconclusive [inhibitor, single point]
17 | COc1ccc2c(c1)CN(C)CC2c1ccc(Cl)c(Cl)c1 (stereo not drawn) | inconclusive [inhibitor, single point]
18 | CN(C)NC(=O)CCC(=O)O | inconclusive [inhibitor, single point]
19 | COc1ccc2c(c1OC)CN1CCc3cc4c(cc3C1C2)OCO4 (stereo not drawn) | inconclusive [inhibitor, single point]
20 | COc1cc(OC)c(OC)cc1C=O | inconclusive [inhibitor, single point]
21 | O=P1(NCCCl)OCCCN1CCCl (stereo not drawn) | active: 20.9 µM
22 | NC1CC1c1ccccc1 (stereo not drawn) | inactive
23 | C[C@]12CCC(=O)C=C1CC[C@@H]1[C@H]3CC[C@](C)(O)[C@@]3(C)CC[C@@H]12 | inconclusive [inhibitor, full curve, poor fit]
